Source: PubChem BioAssay AID624296 (National Center for Advancing Translational Sciences (NCATS), 2012)
About 9,900 (2.8%) of roughly 350,000 compounds were called active. Inconclusive means that the source gave no clear call. Such entries were picked first, then a sample of the others. The call rests on the fitted dose curve; in most records, active means well fitted activation curve with a large enough effect; inconclusive means small, poorly fitted or top-dose-only effect; inactive means no such curve, though single readings can be large or run the other way. Potencies of inconclusive entries are left out as doubtful fits.

assay: A quantitative high throughput screen for small molecules that induce DNA re-replication in MCF 10a normal breast cells.; further: nearly all actives have a fitted effect of over 50% in size; conditions: MCF 10A DNA re-replication, Hoechst nuclear intensity, 48 h; series mostly up to 46.1 µM
Potency means the concentration at half of the fitted maximal effect; tags describe the fitted curve by direction and shape.

Row | Structure (SMILES) | Potency
1 | O=C1NC(=O)N(CCNc2ncc(C(F)(F)F)cc2Cl)C(=O)C1/C=N/OCc1c(F)cccc1Cl (stereo not given) | inconclusive [activator, single point]
2 | CC(C)NS(=O)(=O)c1ccc(OCC(=O)N2CCN(Cc3ccccc3)CC2)cc1 | inconclusive [activator, partial curve, poor fit]
3 | CCOc1ccc(N(CC)S(=O)(=O)c2ccc3c(c2)oc(=O)n3C)cc1 | inconclusive [activator, partial curve, poor fit]
4 | C[C@@H]1O[C@@H](O[C@H]2C[C@@H](O)[C@]3(CO)[C@H]4[C@H](O)C[C@]5(C)[C@@H](C6=CC(=O)OC6)CC[C@]5(O)[C@@H]4CC[C@]3(O)C2)[C@H](O)[C@H](O)[C@H]1O | active: 0.058 µM
5 | O=C(C[n+]1ccn(CCCNP2(=O)C=C(c3ccccc3)OC(c3ccccc3)=C2)c1)c1ccccc1 | inconclusive [activator, single point]
6 | O=C(Oc1ccc2ccc(OC(=O)N3CCCCCC3)cc2c1)N1CCCCCC1 | inconclusive [activator, full curve, poor fit]
7 | CCC[C@H](N[C@@H](CCC)[C@H](O)c1ccccc1)[C@H](O)c1ccccc1 | inconclusive [activator, single point]
8 | O=C(O)CCn1cc(C=C2C(=O)NC(=S)NC2=O)c(-c2ccccc2)n1 | inconclusive [activator, partial curve, poor fit]
9 | CC12CCC3C(CCC4C/C(=N/O)CCC43C)C1CCC2O (stereo not given) | inconclusive [activator, single point]
10 | O=[N+]([O-])c1cccnc1N1CCCNCC1 | inconclusive [activator, partial curve, poor fit]
11 | Cc1cccc(N2C(=O)CC(=O)NC2=O)c1 | inconclusive [activator, single point]
12 | Cc1nc2ccccc2c(=O)n1-c1ccc(-c2ccccc2)cc1 | inconclusive [activator, single point]
13 | FC(F)(F)c1ccc(CNCCc2c[nH]c3ccccc23)cc1 | inconclusive [activator, single point]
14 | CCCN1CCC[C@@H]2Cc3[nH]ncc3C[C@H]21 | inconclusive [activator, full curve, poor fit]
15 | Cn1c2ccccc2c2c(C(=O)N3CCC4(CC3)OCCO4)cn(C3CCCC3)c(=O)c21 | inconclusive [activator, partial curve, poor fit]
